Measurements from the antibiotic and cytotoxicity screens of Wong et al. (2023).
This is one part of the list.

Experiments:
HSkMC = human skeletal muscle cells; test: cytotoxicity call (relative viability < 0.9); conditions: 10 µM
HepG2 = test: cytotoxicity call (relative viability < 0.9); conditions: 10 µM
S. aureus RN4220 = test: growth inhibition call (relative growth <= 0.2); conditions: 50 µM

COc1ccc(NC(=O)Nc2ccc3c(c2)CC(=O)N([C@H](C)CO)C[C@@H](C)[C@H](CN(C)CC2CCCCC2)O3)cc1
inactive: cytotoxicity call (HSkMC) | cytotoxicity call (HepG2) | growth inhibition call (S. aureus RN4220)

COc1cccc(NC(=O)N2C[C@H](O)COC[C@H]3O[C@H](CC(=O)NCCCN4CCOCC4)CC[C@@H]32)c1
inactive: cytotoxicity call (HSkMC) | cytotoxicity call (HepG2) | growth inhibition call (S. aureus RN4220)

CC(C)NC(=O)N(C)C[C@@H]1Oc2c(NS(=O)(=O)c3ccccc3)cccc2C(=O)N([C@H](C)CO)C[C@H]1C
inactive: cytotoxicity call (HSkMC) | cytotoxicity call (HepG2) | growth inhibition call (S. aureus RN4220)

CC(C)NC(=O)Nc1ccc2c(c1)CC(=O)N([C@H](C)CO)C[C@@H](C)[C@@H](CN(C)C(=O)NC1CCCCC1)O2
inactive: cytotoxicity call (HSkMC) | cytotoxicity call (HepG2) | growth inhibition call (S. aureus RN4220)

Cn1cnc(S(=O)(=O)N2C[C@H](O)COC[C@@H]3O[C@H](CC(=O)NC4CCCC4)CC[C@H]32)c1
inactive: cytotoxicity call (HSkMC) | cytotoxicity call (HepG2) | growth inhibition call (S. aureus RN4220)

COc1ccc(S(=O)(=O)N(C)C[C@H]2Oc3c(NC(=O)C4CC4)cccc3C(=O)N([C@H](C)CO)C[C@@H]2C)cc1
inactive: cytotoxicity call (HSkMC) | cytotoxicity call (HepG2) | growth inhibition call (S. aureus RN4220)

Nn1c(Cn2ccnc2)nnc1Cn1ccnc1
inactive: cytotoxicity call (HSkMC) | cytotoxicity call (HepG2) | growth inhibition call (S. aureus RN4220)

COc1ccc(-n2nc(C(N)=O)c3c2C(=O)N(c2ccc(N4CCCCC4=O)cc2)CC3)cc1
inactive: cytotoxicity call (HSkMC) | cytotoxicity call (HepG2) | growth inhibition call (S. aureus RN4220)

C[C@H]1CCc2cc(F)ccc2N1
inactive: cytotoxicity call (HSkMC) | cytotoxicity call (HepG2) | growth inhibition call (S. aureus RN4220)

O=C(C[C@H]1CC=CC[C@@H](Cc2ccc(F)cc2)C(=O)OC[C@H](Cc2c[nH]c3ccccc23)NC1=O)NCCO
inactive: cytotoxicity call (HSkMC) | cytotoxicity call (HepG2) | growth inhibition call (S. aureus RN4220)

CCCCCCCCCCCCCCCC(=O)OC[C@@H](NC(=O)C(Cl)Cl)[C@H](O)c1ccc([N+](=O)[O-])cc1
inactive: cytotoxicity call (HSkMC) | cytotoxicity call (HepG2) | growth inhibition call (S. aureus RN4220)
